Consider 41 compounds from ChEMBL document CHEMBL4888484, “Replenishing the malaria drug discovery pipeline: Screening and hit evaluation of the MMV Hit Generation Library 1 (HGL1) against asexual blood stage Plasmodium falciparum ,using a nano luciferase reporter read-out” (2022).

For the experiment, the system named is Plasmodium falciparum. In words: Primary screen in NF54 nanoGlo assay, in single point, at 2uM, 72h; a lower Z score goes with more inhibition. Type of experiment: functional, Erythrocyte. To be noted: timepoint 72 hour.

Values joined by “and” are separate entries in the source; they are usually repeats but may differ in a detail not shown here. Identical values can stand only once. The whole screen tested about 150,000 compounds, of which about 540 (0.36%) showed an effect of 50% or more. The list shows a part of the results.

In general, % Inhibition refers to the drop in the measured response relative to a control, in per cent. On to `Cn1ccc(NC(=O)CN2CCO[C@H]3CCCC[C@@H]32)n1`, for which the “% Inhibition” value is listed as 1% and the Z score is recorded as -0.26.

Take `COc1ccc(C(=O)N2CCN(c3cc(N4CCOCC4)nc(C)n3)CC2)cc1`: the “% Inhibition” value is reported as 40% and the Z score was -5.32.

Consider `CCOC(=O)N1CCC(NC(=O)c2ccccn2)CC1`, for which the “% Inhibition” value is -16% and the Z score was 2.15.

In the case of `COCCN1CC(=O)N[C@H]2CN(Cc3cc(C(C)(C)C)[nH]n3)C[C@@H]2OCc2cccc(c2)Oc2cc(ccc2OC)CCC1=O`, the “% Inhibition” value was 12% and the Z score is listed as -2.25.

For `C=CCCC(O)CN1CCCC(c2c[nH]c3ncccc23)C1` (configuration not stated), the “% Inhibition” value is reported as -5% and the Z score is recorded as 0.67.

As for `CC1CCN(c2nnc(C(=O)NCc3cccc(F)c3)c3ccccc23)CC1`, the “% Inhibition” value was 0% and the Z score came out at 0.01.

`C=CCNc1nc([C@@H]2COc3ccccc3O2)cs1`: under “2 µM”, the “% Inhibition” value is -8% and -5%; the Z score was 0.72 and 0.67.

Turning to `O=C(NC[C@@H](CO)Cc1ccccn1)Nc1nc2c(s1)CCCC2`, the “% Inhibition” value was 7% and the Z score is on record as -0.87.

As for `COc1cccc(NC(=O)C2CCN(S(=O)(=O)c3ccc4c(c3)CCCN4C(=O)C3CCC3)CC2)c1`, the “% Inhibition” value is listed as -11% and the Z score was 2.

As to `Cc1cccc(CC(=O)N2CCC3(CC2)C[C@@H](N(C2CC2)S(C)(=O)=O)CCO3)c1`, the “% Inhibition” value was found to be 0% and the Z score is 0.04.

For `COc1ccccc1C(=O)N1CCC2(CC1)C[C@@H](N(C)Cc1ccccc1)CCO2`, the “% Inhibition” value is recorded as -4% and the Z score was 0.72.

Take `O=S(=O)(c1ccc2ccccc2c1)n1cncn1`: the “% Inhibition” value is reported as -47% and the Z score stood at 5.52.

As for `CC1CCN(C(=O)c2nnn3c2CO[C@H](c2ccccc2)C3)CC1`, the “% Inhibition” value is given as -6% and the Z score stood at 0.89.

Regarding `Cc1ccnc(NC(=O)N[C@@H](Cc2ccccc2)C2CC2)c1`, the “% Inhibition” value came to 7% and the Z score is on record as -0.83.

As to `Cc1nc(CN)cc(N(C)[C@H](C)c2cccc3ccccc23)n1`, the “% Inhibition” value is 4% and the Z score is reported as -0.62.

In the case of `Cc1nc2ccc(Cl)cc2c(-c2ccccc2)c1C1=NN(S(C)(=O)=O)[C@H](c2ccc(Cl)cc2)C1`, the “% Inhibition” value was found to be 5% and the Z score is listed as -0.6.

Consider `CC(C)n1nnnc1CN[C@@H](C)c1ccc(F)c(F)c1`, for which the “% Inhibition” value is -15% and the Z score stood at 1.89.

As to `CCC(=O)N1CCN(C(=O)c2cnc(Nc3ccccc3)nc2C(F)(F)F)C1`, the “% Inhibition” value is reported as -8% and the Z score was found to be 1.2.

As to `O=C1NC(=O)C2(CCN(C(=O)Nc3cccc4c3CCCC4)CC2)N1`, the “% Inhibition” value stood at 2% and the Z score is -0.37.

In the case of `O=C1[C@@H]2C(c3ccccc3Cl)=NO[C@@H]2C(=O)N1c1ccc2c(c1)OCO2`, the “% Inhibition” value is -11% and the Z score was 1.43.

`CC(C)(C)c1nc(CN2CCN(C(=O)CCn3ccnn3)CC2)cs1`: the “% Inhibition” value is recorded as -10% and the Z score is 1.36.

For `C=C1CC(C)(C(=O)NCc2nccs2)C1`, the “% Inhibition” value is reported as -8% and the Z score is 0.66.

With `Cc1oc(C(=O)N2CC[C@H](C(=O)O)C2)cc1COc1ccccc1`, the “% Inhibition” value was -14% and the Z score stood at 1.24.

`O=C(NC[C@H]1CCO[C@@H]1c1cn[nH]c1)c1nccc2occc12`: the “% Inhibition” value turned out to be 1% and the Z score was -0.15.

Consider `COCCN(CC(=O)N(C)C)[C@@H](C)C(=O)Nc1cccc(Cl)c1`, for which the “% Inhibition” value is -9% and the Z score turned out to be 1.09.

As to `COCc1nc(CCNC(=O)c2noc(C)c2Cc2c(C)noc2C)no1`, the “% Inhibition” value is reported as -6% and the Z score was determined as 0.75.

Take `CC(C)[C@H](CNC(=O)Nc1ccn(C)n1)ONC(=O)OC(C)(C)C`: the “% Inhibition” value was -21% and the Z score stood at 2.3.

With `Cc1ccc(-n2nc(C(=O)N3CCN(c4cccc(C(F)(F)F)c4)CC3)c(=O)n(C)c2=O)cc1`, the “% Inhibition” value is listed as -20% and the Z score was 1.79.

In the case of `CN(C)c1nc(N)cc(-c2cnn(CC(=O)Nc3nn(C)c4ccccc34)c2)n1`, the “% Inhibition” value amounted to 2% and the Z score is listed as -0.23.

`O=C(NCCCC1CCCCC1O)c1cc(F)c(O)c(F)c1` (configuration not stated): the “% Inhibition” value is -13% and the Z score was determined as 1.1.

In the case of `Cc1ocnc1C(=O)NC1(c2ccc(F)cc2F)CCCCC1`, the “% Inhibition” value is given as -6% and the Z score was determined as 1.34.

For `O=C(O)c1ccccc1CN1CCC[C@@](CO)(CC2CC2)C1`, the “% Inhibition” value is on record as 12% and the Z score is reported as -1.41.

Take `CC(C)[C@H](C)NC(=O)Nc1cccc(Br)c1`: the “% Inhibition” value turned out to be 4% and the Z score is -0.47.

Take `Cc1cccnc1-c1cccc(-c2ccn(CCn3cccn3)n2)c1`: the “% Inhibition” value is -9% and the Z score was determined as 1.12.

For `CC(C)CN(CC(C)C)C(=O)c1cccc(C(=O)N(CC(C)C)CC(C)C)n1`, the “% Inhibition” value was -2% and the Z score came out at 0.3.

`C[C@@]1(C(=O)Nc2cccc3cccnc23)Oc2ccccc2NC1=O`: the “% Inhibition” value is recorded as 29% and the Z score is -3.91.

As to `CCCCS(=O)(=O)N[C@@H](C)C(=O)N1CCC(OC)CC1`, the “% Inhibition” value came to 0% and the Z score is recorded as -0.05.

On to `COc1cccc(OC2CN(Cc3nc(C)cs3)C2)c1`, for which the “% Inhibition” value is 4% and the Z score is given as -0.51.

Turning to `COCC1(C2CC2)CN(c2nc(C)nc3c2cnn3-c2ccccc2)C1`, the “% Inhibition” value was -3% and the Z score turned out to be 0.58.

Take `CC1CN(c2ccc(C(F)(F)F)cc2)CC(C)N1Cc1nc[nH]n1` (configuration not stated): the “% Inhibition” value is on record as -32% and the Z score was determined as 3.75.

Turning to `CC(C)[C@@H](NC(=O)c1cc(=O)c2cccc(F)c2[nH]1)C(N)=O`, the “% Inhibition” value was -9% and the Z score was 1.55.
